Results from paper PMC4336329 (PLoS ONE, 2015).
About 14,000 (4.5%) of roughly 310,000 compounds showed an effect of 50% or more. The effect is printed as a negative number. Some of the results follow.

Target: human ether-à-go-go-related gene (hERG) potassium channel (human, UniProt Q12809)
Test: primary screen, population patch clamp on CHO cells stably expressing hERG
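Note: peak tail current of the secondary pulse compared with the same well before compound.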

human ether-à-go-go-related gene (hERG) potassium channel, sequence (Q12809 whole entry, looked up): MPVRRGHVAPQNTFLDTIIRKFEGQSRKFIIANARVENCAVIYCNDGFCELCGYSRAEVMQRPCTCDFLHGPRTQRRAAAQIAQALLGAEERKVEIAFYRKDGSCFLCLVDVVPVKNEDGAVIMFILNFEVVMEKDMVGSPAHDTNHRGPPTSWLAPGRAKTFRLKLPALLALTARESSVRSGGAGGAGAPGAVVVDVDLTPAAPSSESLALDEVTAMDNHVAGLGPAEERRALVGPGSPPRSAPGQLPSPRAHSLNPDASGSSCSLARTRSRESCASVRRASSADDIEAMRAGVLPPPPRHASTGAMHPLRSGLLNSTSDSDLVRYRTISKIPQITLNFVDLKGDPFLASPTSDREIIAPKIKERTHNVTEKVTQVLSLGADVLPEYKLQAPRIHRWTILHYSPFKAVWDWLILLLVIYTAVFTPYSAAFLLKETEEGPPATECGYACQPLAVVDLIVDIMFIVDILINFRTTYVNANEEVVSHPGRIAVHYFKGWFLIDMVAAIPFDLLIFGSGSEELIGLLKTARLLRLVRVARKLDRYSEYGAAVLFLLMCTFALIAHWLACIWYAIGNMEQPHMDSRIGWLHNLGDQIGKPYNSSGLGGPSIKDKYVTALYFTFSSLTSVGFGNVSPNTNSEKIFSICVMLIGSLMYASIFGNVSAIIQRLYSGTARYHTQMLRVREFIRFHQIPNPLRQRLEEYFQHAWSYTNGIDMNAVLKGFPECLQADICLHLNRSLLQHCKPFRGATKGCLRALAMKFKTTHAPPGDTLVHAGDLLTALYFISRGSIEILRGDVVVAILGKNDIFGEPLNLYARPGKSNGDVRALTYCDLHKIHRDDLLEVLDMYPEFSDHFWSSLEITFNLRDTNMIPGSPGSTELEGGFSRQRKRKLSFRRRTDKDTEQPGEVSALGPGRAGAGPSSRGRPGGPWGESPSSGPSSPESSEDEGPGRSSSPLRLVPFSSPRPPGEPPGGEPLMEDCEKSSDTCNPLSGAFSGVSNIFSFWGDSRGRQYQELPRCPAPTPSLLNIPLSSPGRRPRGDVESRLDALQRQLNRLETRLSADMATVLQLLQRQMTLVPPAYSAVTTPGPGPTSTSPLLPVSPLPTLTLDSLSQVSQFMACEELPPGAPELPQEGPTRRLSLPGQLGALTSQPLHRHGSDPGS

Compared with `O=C1N=NC2=C1c1c3ccccc3c(O)n1CC2`, `Cc1nn(Cc2c(F)cccc2Cl)c(=O)c2ccccc12` is higher in “hERG current change (%, negative = inhibition) at 10uM” value: 3.49% for the first, 14.4% for the second.

Going from `COc1ccc2c(c1)c(CC[NH3+])c(C)n2Cc1ccccc1.[Cl-]` to `CCOC(=O)COc1ccc2c(c1)c(C(C)=O)c(C)n2Cc1ccccc1`, the “hERG current change (%, negative = inhibition) at 10uM” value falls from -2.4% to -40.7%.

Going from `COc1ccc(N=c2oc3cc(O)ccc3cc2C(=O)Nc2ccccn2)cc1OC` to `COc1ccc(C(Sc2ccccc2)c2ccccc2)cc1OC` (stereo not drawn), the “hERG current change (%, negative = inhibition) at 10uM” value falls from 12.9% to 7.26%.

Compared with `Cc1cc(C)cc(NS(=O)(=O)c2ccc(NC(=S)NC(=O)c3cccs3)cc2)c1`, `O=C(O)COc1ccccc1/C=N/Nc1ccc(S(=O)(=O)Nc2ccc(Cl)cc2)cc1[N+](=O)[O-]` is higher in “hERG current change (%, negative = inhibition) at 10uM” value: -0.549% for the first, 25.2% for the second.

Going from `O=c1c(Cl)c(N2CCN(c3ccc(F)cc3)CC2)cnn1C12CC3CC(CC(C3)C1)C2` to `Cn1c(=O)n(C)c2cc([N+](=O)[O-])c(N3CCN(C(=O)c4ccc(F)cc4)CC3)cc21`, the “hERG current change (%, negative = inhibition) at 10uM” value falls from -34.5% to -44%.

Going from `c1ccc(CCCNc2ncccn2)cc1` to `O=C(O)C1=C(OCc2ccccc2)C(=O)NCC1`, the “hERG current change (%, negative = inhibition) at 10uM” value rises from 7.93% to 20.3%.

First: CCOc1ccc(CCNC(=O)c2[nH]c(C)c(C(C)=O)c2C)cc1OCC
Second: COCCN(C(=O)COC(=O)c1cc(C)oc1C)c1c(N)n(Cc2ccccc2)c(=O)[nH]c1=O
The “hERG current change (%, negative = inhibition) at 10uM” value of the first is higher: 12.5% for the first, -2.83% for the second.

Compared with `Cc1ccccc1CNC(=O)c1ccc(Cl)c([N+](=O)[O-])c1`, `Cc1onc(-c2ccccc2Cl)c1C(=O)Nc1nc2ccc(S(C)(=O)=O)cc2s1` is lower in “hERG current change (%, negative = inhibition) at 10uM” value: 10.3% for the first, -2.5% for the second.

First: Cc1ccc(N(CC(=O)Nc2ccc(S(=O)(=O)N3CCOCC3)cc2)S(C)(=O)=O)cc1C
Second: O=C(Nc1ccccc1)c1ccc(NCC2CCCO2)c(S(=O)(=O)N2CCOCC2)c1 (stereo not drawn)
The “hERG current change (%, negative = inhibition) at 10uM” value of the first is lower: -4.58% for the first, 11.2% for the second.

Going from `O=C(Nc1cc(Cl)ccc1N1CCOCC1)c1cccnc1Cl` to `COc1ccc(C)cc1-n1nnnc1SCC(=O)Nc1cccnc1Cl`, the “hERG current change (%, negative = inhibition) at 10uM” value falls from 1.8% to -16.2%.

Compared with `Cc1ccc(C)c(N(C(=O)Cn2nnc3ccccc32)C(C(=O)NC(C)(C)C)c2ccsc2)c1` (stereo not drawn), `Cc1ccc(C)c(NC(=O)CN(C)C(=O)c2ccc3c(=O)n4c(nc3c2)CCC4)c1` is lower in “hERG current change (%, negative = inhibition) at 10uM” value: 1.06% for the first, -4.83% for the second.

Going from `CN1CCN(/C=N/c2c(C#N)cnn2Cc2ccccc2)CC1` to `COc1ccc(OC)c(CN2CCN(C(=O)c3cccc4ccccc34)CC2)c1.O=C(O)C(=O)O`, the “hERG current change (%, negative = inhibition) at 10uM” value rises from -19.2% to -2.37%.

Going from `Cc1ccc2nc3n(c(=O)c2c1)CCCCC3` to `Clc1ccc(-c2csc(N3CCCCCC3)n2)cc1`, the “hERG current change (%, negative = inhibition) at 10uM” value rises from 10% to 12.1%.

Compared with `CC(C)OCCCNS(=O)(=O)c1ccc2ccccc2c1`, `CCc1ccnc(NS(=O)(=O)c2ccc3c(c2)CCO3)c1` is higher in “hERG current change (%, negative = inhibition) at 10uM” value: -13.4% for the first, 18.7% for the second.

Compared with `COc1ccccc1Cn1c(=O)c2ccccc2n2c(Sc3ncnc4sccc34)nnc12`, `O=c1[nH]c(SCc2ccccc2Cl)nc2c1cnn2-c1ccccc1` is higher in “hERG current change (%, negative = inhibition) at 10uM” value: -10.6% for the first, 16.9% for the second.

Compared with `CC(N)C(=O)c1ccco1.Cl` (stereo not drawn), `Cc1cc(C)cc(OCC(=O)OCC(=O)NCc2ccco2)c1` is lower in “hERG current change (%, negative = inhibition) at 10uM” value: 13.2% for the first, 4.8% for the second.

Going from `Cc1ccc(S(=O)(=O)CCC(=O)N(CCN2CCOCC2)c2nc3ccccc3s2)cc1.Cl` to `COc1ccc(-c2nc(NC(=O)C3CCN(c4nc5ccccc5o4)CC3)sc2C)cc1`, the “hERG current change (%, negative = inhibition) at 10uM” value falls from 13.4% to 4.03%.

First: COc1cc2nc(C3CCC3)n(NC(=O)C3CCC(OC)CC3)c(=O)c2cc1OC (stereo not drawn)
Second: COc1ccc(Cc2nnc(NC(=O)c3cc(OC)c(OC)c(OC)c3)s2)cc1OC
The “hERG current change (%, negative = inhibition) at 10uM” value of the first is lower: -7.1% for the first, -5.88% for the second.

Going from `CC(C)CCNC(=O)C1CC(c2cccc(F)c2)=NO1` (stereo not drawn) to `CCNC(=O)C1CCCc2c1[nH]c1ccc(Cl)cc21` (stereo not drawn), the “hERG current change (%, negative = inhibition) at 10uM” value rises from -2.54% to 16.3%.

Compared with `CCC(C)(C)NC(=O)CN(C(=O)C(=O)Nc1ccc2c(c1)OCCO2)N1CCOCC1`, `CC(C(=O)NCC1CCCCC1)N(C)CC(=O)Nc1ccc(N2CCOCC2)cc1` (stereo not drawn) is higher in “hERG current change (%, negative = inhibition) at 10uM” value: -2.68% for the first, 4.48% for the second.

Going from `COc1cccc(NC(=O)C(Sc2nnnn2C)c2ccccc2)c1` (stereo not drawn) to `COC(=O)N1C(=O)[C@@](Cc2ccccc2)(c2ccccc2)N1C(=O)OC`, the “hERG current change (%, negative = inhibition) at 10uM” value falls from 19% to 11.8%.

Going from `Cc1cc(C)n(-c2nc(NCCCN(C)C)c3c4c(sc3n2)CCCC4)n1` to `CC1(C)Cc2nc(NCCCO)c(C#N)cc2CO1`, the “hERG current change (%, negative = inhibition) at 10uM” value rises from -65.2% to 8.61%.

First: O=C(NCC1(c2ccccc2)CCCC1)c1ccc(Br)o1
Second: Cn1c2ccccc2c2c(C(=O)NCc3ccco3)cn(C3CCCCC3)c(=O)c21
The “hERG current change (%, negative = inhibition) at 10uM” value of the first is higher: 1.9% for the first, -33.4% for the second.

First: CCO[C@H]1OC(C(=O)NCc2ccccc2)=C[C@@H](c2ccc(C(F)(F)F)cc2)[C@@H]1CCCO
Second: CCN1C(=O)[C@H]2[C@@H](c3ccc(-c4ccccc4)cc3)N[C@@](CC(C)C)(C(=O)OC)[C@H]2C1=O.O=C(O)C(F)(F)F
The “hERG current change (%, negative = inhibition) at 10uM” value of the first is lower: -31.5% for the first, 6.29% for the second.

Going from `COc1ccc(N=C2S/C(=C\c3ccc(C)o3)C(=O)N2CC(C)C)cc1` to `COc1ccc(/C(O)=C2/C(=O)C(=O)N(Cc3cccnc3)C2c2ccccn2)cc1` (stereo not drawn), the “hERG current change (%, negative = inhibition) at 10uM” value falls from 8.37% to 4.12%.

First: COc1ccc(C(C)=O)cc1COC(=O)CNC(=O)c1ccc(Cl)cc1
Second: COc1ccc(C(C)=O)cc1Cn1cnc2c(cnn2C)c1=O
The “hERG current change (%, negative = inhibition) at 10uM” value of the first is lower: -4.06% for the first, 10% for the second.

Going from `COc1ccc(NC(=O)NC2(C(=O)N3CCCCCC3)CCCCC2)cc1` to `O=C(CCNS(=O)(=O)c1ccc(Br)s1)N1CCCCC1`, the “hERG current change (%, negative = inhibition) at 10uM” value rises from -13% to 4.95%.

Compared with `Cc1[nH]nc(SCC(=O)NC2CCCCC2)c1[N+](=O)[O-]`, `COc1ccccc1CNC(=O)COC(=O)C1CCN(S(=O)(=O)c2ccccc2)CC1` is lower in “hERG current change (%, negative = inhibition) at 10uM” value: 13% for the first, -26.9% for the second.

First: Cc1ccc2c(c1)C(c1ccc(F)cc1)N(C(=O)c1cc3ccccc3oc1=O)CC(=O)N2 (stereo not drawn)
Second: Nc1cc(OC(=O)c2ccc(F)cc2)nn1S(=O)(=O)c1ccc(F)cc1
The “hERG current change (%, negative = inhibition) at 10uM” value of the first is lower: -55% for the first, 20% for the second.

Compared with `CCN(CC)S(=O)(=O)c1ccc(C(=O)NCc2nnc(SCC(=O)OC)n2C)cc1`, `Cc1ccc(NC(=O)Cn2nc(C)c(S(=O)(=O)N(C)C)c2C)cc1` is higher in “hERG current change (%, negative = inhibition) at 10uM” value: -1.87% for the first, 40.5% for the second.

Compared with `Cc1ccc2cccc(OCC(=O)N(C)CC(=O)Nc3ccc(F)cc3)c2n1`, `CN(CC(=O)Nc1n[nH]c(=S)s1)S(=O)(=O)c1cccc2cccnc12` is lower in “hERG current change (%, negative = inhibition) at 10uM” value: 8.32% for the first, 7.52% for the second.

First: COc1ccccc1-c1nc(SC)n[nH]1
Second: Cc1ccsc1CNn1cnnc1SCc1ccccc1F
The “hERG current change (%, negative = inhibition) at 10uM” value of the first is lower: -16.3% for the first, -3.67% for the second.

First: COc1cc(/C=N/NC(=O)c2ccccn2)cc2c1OCO2
Second: Cc1onc(-c2ccccc2)c1C(=O)N/N=C/c1cc2c(cc1Cl)OCO2
The “hERG current change (%, negative = inhibition) at 10uM” value of the first is lower: -10.2% for the first, -0.765% for the second.

Going from `COc1cc(C#N)c(N=C(SCC#N)N2CCOCC2)cc1OC` to `COc1cc(OC)c2c(C)cc(=O)oc2c1C(CCN1CCOCC1)c1ccc(N(C)C)cc1` (stereo not drawn), the “hERG current change (%, negative = inhibition) at 10uM” value falls from 7.99% to -28.5%.

First: CN(C)c1ccccc1C(=O)N1CCC(n2nccc2NC(=O)C2CC2)CC1
Second: CN(C)CC#CCC(O)(c1ccccc1)C1CCCC1.Cl (stereo not drawn)
The “hERG current change (%, negative = inhibition) at 10uM” value of the first is higher: 15.7% for the first, -21.4% for the second.

Going from `O=C(Cn1cnc2c(cnn2-c2ccccc2)c1=O)OCc1ccccc1` to `O=C(O)c1cc(-c2ccccc2Cl)n(-c2cccc(Cl)c2)n1`, the “hERG current change (%, negative = inhibition) at 10uM” value falls from 14.9% to 6.64%.

Going from `CSCCC(NC(=O)COc1ccccc1)C(=O)N1CCN(C(C)=O)CC1` (stereo not drawn) to `CCN(CC)C(=O)Cn1cnc2sc(C(=O)N3CCN(Cc4ccc5c(c4)OCO5)CC3)c(C)c2c1=O`, the “hERG current change (%, negative = inhibition) at 10uM” value falls from -5.67% to -19.5%.

First: O=C(OCc1nnc(-c2ccc(Cl)cc2)o1)c1ccc(O)cc1
Second: Cc1cc(C)n(/C(=C\N(C)C)C(=O)c2ccc(Cl)cc2)n1
The “hERG current change (%, negative = inhibition) at 10uM” value of the first is lower: 11.8% for the first, 26.8% for the second.

Compared with `CC1(C)CNC(=O)CC(C)(C)N1O`, `CC(C)OC(=O)CC12CN(C)CC(CC(=O)OC(C)C)(CN(C)C1)C2=O` is higher in “hERG current change (%, negative = inhibition) at 10uM” value: -12.6% for the first, 1.92% for the second.

Compared with `CCOc1cc(C)c(C(C)C)cc1S(=O)(=O)N1CCN(C)CC1`, `CCCCC(=O)NC(c1cccs1)c1cc(Cl)c2cccnc2c1O` (stereo not drawn) is lower in “hERG current change (%, negative = inhibition) at 10uM” value: -11.5% for the first, -17.6% for the second.

Compared with `CNC(=O)c1sc(N2N=C3/C(=C/c4ccccc4)CCCC3C2c2ccccc2)nc1C` (stereo not drawn), `Cc1ccc(-c2cn3cccnc3n2)cc1NC(=O)c1c(-c2ccccc2Cl)noc1C` is lower in “hERG current change (%, negative = inhibition) at 10uM” value: 8.73% for the first, -7.9% for the second.

Compared with `C/C=C(\C)C(=O)N[C@@H](c1ccccc1)[C@@H](O)C(=O)O[C@H]1C[C@@]2(O)[C@@H](OC(=O)c3ccccc3)C3[C@](C)(C(=O)[C@H](OC(C)=O)C(=C1C)C2(C)C)[C@H](O)C[C@H]1OC[C@@]31OC(C)=O` (stereo partly drawn), `O=C1CC(c2ccccc2Cl)C2=C(COC2=O)N1` (stereo not drawn) is lower in “hERG current change (%, negative = inhibition) at 10uM” value: 10.7% for the first, -6.11% for the second.
